Reference: PubChem BioAssay AID686971 (National Center for Advancing Translational Sciences (NCATS), 2013)
In all, about 360,000 compounds went through this assay and about 7,500 (2.1%) were called active. Inconclusive results, whose numbers are uncertain, are shown with a selection of clear calls. The call rests on the fitted dose curve; in most records, active means well fitted cell-killing curve with a large enough effect; inconclusive means small, poorly fitted or top-dose-only effect, or effect the other way, or another doubt; inactive means no such curve, though single readings can be large or run the other way. Potencies of inconclusive entries are left out as doubtful fits.

Assay: qHTS for induction of synthetic lethality in tumor cells producing 2HG: qHTS for the HT-1080-IDH1KD cell line;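 on activity, negative = toxicity: 0% = DMSO wells and -100% = cell-free medium wells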
Conditions: HT-1080 IDH1 knockdown viability, ATP luminescence, 48 h; activity, negative = toxicity: at 46.1 µM (top of the series) unless noted
Summary of the method: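 After a 2 h attachment period, IDH1KD HT-1080 cells took pin-transferred compound for 48 h at 37 °C; ATP-based luminescence after 10 min room-temperature reagent incubation reported viability.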
Potency means the concentration at half of the fitted maximal effect; tags describe the fitted curve by direction and shape.

| Structure (SMILES) | Potency | activity, negative = toxicity |
| --- | --- | --- |
| CCc1nc(Nc2ccc(O)cc2)c2oc3ccccc3c2n1 | inconclusive [cytotoxic, partial curve] | – |
| Cc1cc([N+](=O)[O-])ccc1NC(=S)NC(=O)C(c1ccccc1)c1ccccc1 | inconclusive [cytotoxic, partial curve] | – |
| CCn1c(Sc2ccc([N+](=O)[O-])cn2)nnc1-c1ccco1 | active: 18.4 µM | – |
| COc1ccc(C(=O)/C=C/c2ccc(F)cc2)c(OC(=O)c2ccc([N+](=O)[O-])cc2)c1 | inconclusive [cytotoxic, single point] | – |
| CC1(C)CC(=O)C(N=Nc2cccc([N+](=O)[O-])c2)=C(O)C1 | – | inactive: -1.88% |
| CCOc1ccccc1-n1c(CN2CCN(C(=O)c3ccco3)CC2)nc2ccccc2c1=O | active: 10 µM | – |
| CCn1cc(CN2CCc3c([nH]c4ccccc34)C2c2cccc(O)c2)c(C)n1 (stereo not given) | inconclusive [cytotoxic, single point] | – |
| Cc1nc(N2CCC(C)CC2)c2nnn(Cc3ccccc3)c2n1 | inconclusive [cytotoxic, partial curve] | – |
| CCOc1cccc2cc(C(=O)N3CCN(C/C=C/c4ccccc4)CC3)c(=O)oc12 | inconclusive [cytotoxic, single point] | – |
| O=C(c1cc(COc2ccc(F)cc2F)on1)N1CCN(C2CCCC2)C(=O)C1 | – | inactive: 1.74% |
| C/C(=N\NC(N)=O)c1ccccc1Cl | – | inactive: 13.4% |
| OCCCNc1ncnc2oc(-c3ccccc3)c(-c3ccccc3)c12 | inconclusive [cytotoxic, partial curve] | – |
| O=C(CN(c1cccc(C(F)(F)F)c1)S(=O)(=O)c1ccc(Cl)c([N+](=O)[O-])c1)NCc1ccc(F)cc1 | inconclusive [cytotoxic, single point] | – |
| COc1ccc(CC(N)c2csc(NC(=O)NC(c3ccccc3)c3ccccc3)n2)cc1 (stereo not given) | inconclusive [cytotoxic, single point] | – |
| Cc1cccc2nc(CSC(=N)N)c(Br)n12 | inconclusive [cytotoxic, partial curve] | – |
| Cc1cccc2cc3c(nc12)SC(=NCC1CCCO1)N(Cc1ccco1)C3 (stereo not given) | active: 10.3 µM | – |
| Nc1c(S(=O)(=O)c2cccs2)c2nc3ccccc3nc2n1/N=C/c1cccc(O)c1 | active: 20.6 µM | – |
| O=C(NCCc1ccccc1)C1Cc2c(-c3ccccc3)ccnc2O1 (stereo not given) | inconclusive [cytotoxic, single point] | – |
| CC(C)(C)OC(=O)N1C(=O)[C@](OC(=O)c2ccccc2)(c2ccc(F)cc2)c2ccccc21 | inconclusive [cytotoxic, single point] | – |
| COc1cccc(OC)c1OCCNCC1CSc2ccccc2O1 (stereo not given) | inconclusive [cytotoxic, partial curve] | – |
| COc1ccc(-c2sc3ccccc3c2-c2ccc(OCCN3CCCCC3)cc2)cc1 | – | inactive: -19.6% |
| O=C(Nc1ccncc1)c1cc(-c2cccc(Br)c2)nc2ccccc12 | inconclusive [cytotoxic, single point] | – |
| CCOC(=O)C1=C(CN2CCc3ccccc32)NC(=O)NC1c1cc(C)ccc1C (stereo not given) | inconclusive [cytotoxic, full curve] | – |
| CC(C)NC(=O)C1C(c2ccccc2)=Nc2ccccc2N1C(=O)c1cc(Cl)cc(Cl)c1 (stereo not given) | active: 16.4 µM | – |

| Structure (SMILES) | Potency | activity, negative = toxicity |
| --- | --- | --- |
| O=C(/C=C/Sc1ncn[nH]1)c1ccc(Cl)cc1 | active: 5.8 µM | – |
| CN(NC(=O)Nc1ccc(Cl)cc1)c1ncc(C(F)(F)F)cc1Cl | inconclusive [cytotoxic, single point] | – |
| O=C(NCC1CCCN(Cc2nccs2)C1)c1cccc2ccccc12 (stereo not given) | inconclusive [cytotoxic, partial curve, poor fit] | – |
| Cc1ccc(CSCCNC(=O)c2ccc(Cl)c(S(=O)(=O)N3CCOCC3)c2)cc1 | – | inactive: -25.5% |
| CC(Oc1ccc(Cl)cc1Cl)c1ccnc(N)n1 (stereo not given) | inconclusive [cytotoxic, single point] | – |
| C/C(=N/NC(=O)c1cc(-c2ccc(Cl)s2)[nH]n1)c1ccco1 | – | inactive: -18.9% |
| COc1cccc(C(=O)NN=C2CCCC2)c1 | – | inactive: -11.5% |
| Nc1ccc(-c2cnc[nH]2)cc1[N+](=O)[O-] | – | inactive: -3.18% |
| Clc1ccc(CNCCCSc2ncccn2)cc1 | inconclusive [cytotoxic, single point] | – |
| N/C(=N\OC(=O)c1ccc2ccccc2c1)c1ccccc1Cl | inconclusive [cytotoxic, single point] | – |
| CCC/C=C(\CCC)C(NS(=O)(=O)c1cccc2cccnc12)c1ccc(C(=O)OC)cc1 (stereo not given) | inconclusive [cytotoxic, single point] | – |
| CCCCn1c2ccccc2c2cc(CC(N)=O)ccc21 | inconclusive [cytotoxic, single point] | – |
| CCOP(=O)(OCC)c1cccc(P(=O)(c2ccccc2)c2ccccc2)c1O | – | inactive: -7.41% |
| CC(C)C[C@H]1CN=C(Nc2ccccc2)N1CC1CCC(C(C)(C)C)CC1 (stereo not given in full) | inconclusive [cytotoxic, single point] | – |
| CC(=O)c1c(C)[nH]c(C(=O)OCC(=O)Nc2cc(C)on2)c1C | inconclusive [cytotoxic, single point] | – |
| COc1cc(OC)cc(-c2nc3ccccc3c(=O)n2OC(=O)c2ccccc2C)c1 | inconclusive [cytotoxic, partial curve] | – |
| CN1CCC(=O)N(CCOc2ccccc2)CC1 | inconclusive [cytotoxic, single point] | – |
| Cc1ccc(-c2cc(C(=O)N/N=C/c3ccc([N+](=O)[O-])o3)c3ccccc3n2)o1 | inconclusive [cytotoxic, partial curve] | – |
| COc1ccc(Cl)cc1NC(=O)CNC(c1ccccc1)c1ccccc1 | – | inactive: -8.58% |
| COc1ccc(C2c3ccc4ccccc4c3Oc3ncn(CCN4CCOCC4)c(=N)c32)cc1 (stereo not given) | inconclusive [cytotoxic, single point] | – |
| COc1ccc(C2c3ccc4ccccc4c3Oc3ncn(CCCO)c(=N)c32)cc1OC (stereo not given) | active: 5.17 µM | – |
| Cc1cccn2c(=O)c(/C=C(\C#N)C(N)=O)c(N3CCN(c4ccccc4)CC3)nc12 | inconclusive [cytotoxic, single point] | – |
| O=C(NCC(c1ccco1)N1CCN(c2ccc(F)cc2)CC1)C(=O)NC1CCCCC1 (stereo not given) | – | inconclusive: -9.08% [cytotoxic] |
| CC(C)C1C(=O)N(Cc2cn(Cc3ccco3)nn2)CCS(=O)(=O)N1Cc1ccc(-c2ccc(Cl)cc2)cc1 (stereo not given) | inconclusive [cytotoxic, single point] | – |

| Structure (SMILES) | Potency | activity, negative = toxicity |
| --- | --- | --- |
| Cc1ccc(NC(=O)c2ccc(COc3ccccc3[N+](=O)[O-])o2)nc1 | inconclusive [cytotoxic, partial curve] | – |
| COc1ccccc1-c1c(C#N)c(N)nc2c1CCc1ccccc1-2 | active: 16.4 µM | – |
| Cn1nc(C(=O)Nc2cccc(C(F)(F)F)c2)ccc1=O | – | inactive: -0.495% |
| O=C(N/N=C/c1cc(Br)cc(Br)c1O)c1ccncc1 | inconclusive [cytotoxic, partial curve] | – |
| c1ccc(-c2ccc(-c3cn4c(n3)CCC4)cc2)cc1 | inconclusive [cytotoxic, partial curve, poor fit] | – |
| CCOC(=O)CSc1nc(C(C)(C)C)nc2ccccc12 | inconclusive [cytotoxic, single point] | – |
| CCOc1ccc(C(=O)COC(=O)c2nc3nccc(C)n3n2)cc1 | – | inactive: 1.16% |
| COc1ccc(N=C2SCC(c3ccc(C)cc3)=NN2CCO)cc1 | inconclusive [cytotoxic, partial curve] | – |
| Cn1c(=O)n(CCOc2ccc([N+](=O)[O-])cc2)c2ccccc21 | inconclusive [cytotoxic, single point] | – |
| Cc1ccccc1C(=O)Nc1cccc(C(=O)N/N=C/c2ccc3c(c2)OCO3)c1 | inconclusive [cytotoxic, partial curve] | – |
| Cc1ccc(-n2c(-c3ccc(Cl)cc3)c[n+]3c2CCC3)cc1 | inconclusive [cytotoxic, partial curve] | – |
| Cc1cc(C)nc(/N=C2\NC(=O)CC(C(=O)O)N2c2ccc(Cl)cc2)n1 (stereo not given) | – | inactive: 4.56% |
| Cc1cccnc1NC(=S)NC(=O)c1cccs1 | active: 7.08 µM | – |
| COc1ccc(OC)c(C2=CC(=O)C[C@H](c3ccc4c(c3)OCO4)C2)c1 | inconclusive [cytotoxic, single point] | – |
| COc1cc(CNCCc2ccccc2)cc(Br)c1OCC(=O)Nc1ccccc1C | – | inactive: -12.5% |
| COc1ccc(NC(=O)Cn2c(=O)oc3cc(S(=O)(=O)N4CCCC4)ccc32)c(OC)c1 | – | inactive: 0.873% |
| O=[N+]([O-])/C=C/c1ccc2c(ccn2Cc2ccccc2)c1 | active: 16.4 µM | – |
| CC(C)[C@H]1COCCS(=O)(=O)N1Cc1ccccc1 | – | inactive: -1.89% |
| CCc1ccc(C2=NN(c3ccc(S(N)(=O)=O)cc3)C(c3ccc(F)cc3)C2)cc1 (stereo not given) | inconclusive [cytotoxic, single point] | – |
| COc1cc(OC)nc(Nc2nc(C(N)Cc3ccc(Cl)cc3)cs2)n1 (stereo not given) | – | inconclusive: -30.9% [cytotoxic] |
| Cc1c(-c2nc(N)nc(Nc3ccc(F)cc3)n2)oc2ccccc12 | inconclusive [cytotoxic, single point] | – |
| Cn1cccc1/C=N/NC(=O)c1sc2ccccc2c1Cl | inconclusive [cytotoxic, single point] | – |
